Experimental data published in publication PMC6919601, “Identification of Plasmodium dipeptidyl aminopeptidase allosteric inhibitors by high throughput screening” (PLoS ONE, 2019).
Among all 110,000 compounds or so, about 230 (0.21%) showed an effect of 50% or more. The list shows a part of the results.

Molecular target: DPAP1 (Plasmodium falciparum, UniProt Q8IIJ9)
Assay: primary screen, percent inhibition; read by cleavage of a fluorogenic dipeptide substrate; higher = more effect of the substance
Design: species or system P. falciparum D10 trophozoite lysates; single well
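Also: 30 min substrate incubation versus DMSO and 10 µM JCP410 controls.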

Chain of DPAP1 (Q8IIJ9 whole entry, looked up): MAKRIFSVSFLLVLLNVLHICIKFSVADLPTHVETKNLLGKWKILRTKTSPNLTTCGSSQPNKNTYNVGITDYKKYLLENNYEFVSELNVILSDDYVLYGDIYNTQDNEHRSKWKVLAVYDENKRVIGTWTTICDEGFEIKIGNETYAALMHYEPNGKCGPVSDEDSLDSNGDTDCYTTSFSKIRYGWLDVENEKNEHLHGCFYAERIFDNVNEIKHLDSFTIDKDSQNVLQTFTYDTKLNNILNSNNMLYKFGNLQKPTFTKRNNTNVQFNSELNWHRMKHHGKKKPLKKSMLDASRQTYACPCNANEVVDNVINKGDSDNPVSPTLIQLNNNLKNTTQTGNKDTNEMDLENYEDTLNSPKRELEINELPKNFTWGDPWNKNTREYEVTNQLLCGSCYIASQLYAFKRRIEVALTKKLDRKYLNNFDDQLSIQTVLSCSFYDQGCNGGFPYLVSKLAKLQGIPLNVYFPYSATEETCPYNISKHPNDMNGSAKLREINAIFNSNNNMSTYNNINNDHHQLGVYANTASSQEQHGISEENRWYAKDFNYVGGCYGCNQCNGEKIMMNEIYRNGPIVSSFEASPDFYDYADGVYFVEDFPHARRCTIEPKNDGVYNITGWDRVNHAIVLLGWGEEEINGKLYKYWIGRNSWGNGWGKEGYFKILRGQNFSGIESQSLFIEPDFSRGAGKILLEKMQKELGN

SMILES	% Inhibition @ 10 uM [%]
CCn1c2ccccc2c2cc(NS(=O)(=O)CC)ccc21	-0.173
CC1=C(c2ccc(C)cc2)S(=O)(=O)N=C1NCCCN1CCc2ccccc2C1	-1.08
Cc1cccc(C)c1NC(=O)C(C)Sc1ccccc1 (stereo not drawn)	2.38
NC(=O)COc1ccc(-c2noc(COc3ccccc3)n2)cc1	-8.55
CCN(c1ccccc1)S(=O)(=O)c1ccc(NC(=O)CCc2ccccc2)cc1	-0.132
CCC(C)Oc1ccc(/C=C2/NC(=O)NC2=O)cc1OC (stereo not drawn)	3.8
CN1CCN(C(=O)c2cc3ccccc3oc2=O)CC1	-3.27
CSc1ccc(C2C(C#N)=C(N)Oc3[nH]nc(-c4ccc(C)cc4)c32)cc1 (stereo not drawn)	2.38
CCOC(=O)c1c(NC(=O)C(C)Oc2ccc(Cl)c(C)c2)sc(C(C)=O)c1C (stereo not drawn)	11.1
O=C(NCC1CCCO1)c1noc2c1CSc1ccccc1-2 (stereo not drawn)	19.3
CCC/N=c1\c(NC(=O)c2cc(OC)c(OC)c(OC)c2)c(O)oc2ccccc12	1.75
CCN(CC)C(=O)Cn1cnc2sc(C(=O)NCc3ccccc3Cl)c(C)c2c1=O	-2.87
CCc1ccc(C2CC(=O)N=C(NC(=O)c3ccc(OC(F)F)cc3)N2)cc1 (stereo not drawn)	0.0654
O=C1CCCC2=C1C(c1ccccc1OCc1ccccc1F)C1=C(O)CCCC1=N2 (stereo not drawn)	0.147
CCO/C(O)=C1\C(C)=NC2=C(C(=O)CCC2)C1c1ccc(OC)c(OC)c1 (stereo not drawn)	3.24
CC(=O)Nc1cccc(N2C(=O)c3ccc(Br)cc3C2=O)c1	-0.185
Cc1ccc(-n2nnc(-c3nsc(NC(=O)c4ccccc4C)n3)c2C)cc1	-1.38
COc1cc(OC)c(OC)cc1C=C1C(=O)NC(=S)NC1=O	0.177
O=C(NCc1noc2ccccc12)Nc1ccccn1	-6.51
CC1Nc2nc3ccccc3n2C(c2cccc(F)c2)=C1C(=O)c1ccccc1 (stereo not drawn)	-2.5
CC(C)(C)c1ccc(C(=O)n2nc(-c3cccnc3)nc2NCc2cccs2)cc1	3.81
OC12CCCCC1C1(O)CCCCC1C1(CCCCC1)O2 (stereo not drawn)	3.25
CCCCCn1c(CN2CCN(CCO)CC2)nc2c1c(=O)n(C)c(=O)n2C	-5.1
COc1ccc(OC)c(NC(=O)C(C)Oc2ccc(C)cc2)c1 (stereo not drawn)	4.39
Cn1nc(C(=O)N2CCN(c3ccccn3)CC2)c2c1-c1ccccc1SC2	3.3
CCN(CC)S(=O)(=O)c1ccc(S(=O)(=O)N(Cc2ccccn2)Cc2ccco2)cc1	2.05
Cc1ccc(SCC(=O)Nc2cccc(C)c2)cc1	0.851
